Some of the results follow.
These sequences were tested against no compound (DMSO) (assay: log2 fold change of degron read counts, EGFP-low vs EGFP+ sorted cells; higher = lower degron-EGFP level without compound (poor expression or instability)). Conditions: compound: DMSO control; 18 h.
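Note: jurkat cells carrying a lentiviral library of mutant zinc finger degrons fused to EGFP plus mCherry, mCherry+ cells FACS sorted, degron abundance counted by next-generation sequencing.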

Sequence | log2 fold change of degron read counts
FECPVCGACFTQKGNLLRHIKL | -0.738
FFCDVCGAAFTQKGNLLRHIKL | -0.25
FGCNQCGAFFTQKGNLLRHIKL | 0.269
FVCPQCGAKFTQKGNLLRHIKL | -1.37
FMCNICGADFTQKGNLLRHIKL | -1.05
FFCSVCGHWFTQKGNLLRHIKL | 1.79
FLCEQCGAQFTQKGNLLRHIKL | -2.41
FNCNICGAFFTQKGNLLRHIKL | 0.157
LWCPICGFSCTQKGNLLRHIKL | 1.93
FCCSVCGHPFTQKGNLLRHIKL | -0.023
FDCNVCGAEFTQKGNLLRHIKL | -1.06
FGCEICGRDFTQKGNLLRHIKL | -0.775
FCCDVCGAEFTQKGNLLRHIKL | -1.74
FGCPVCGARFTQKGNLLRHIKL | -0.733
FACNQCGARFTQKGNLLRHIKL | -1.62
FMCNVCGAHFTQKGNLLRHIKL | -0.643

Sequence | log2 fold change of degron read counts
FHCEQCGADFTQKGNLLRHIKL | -2.94
FTCPVCGAGFTQKGNLLRHIKL | 0.00224
FYCPICGALFTQKGNLLRHIKL | 1.07
FGCSVCGHWFTQKGNLLRHIKL | 1.68
FDCEICGHAFTQKGNLLRHIKL | -0.281
FGCNQCGASFTQKGNLLRHIKL | -0.135
FRCEICGADFTQKGNLLRHIKL | -1.73
FICPICGADFTQKGNLLRHIKL | -0.0549
FNCDQCGAAFTQKGNLLRHIKL | -1.78
FGCPICGRLFTQKGNLLRHIKL | 0.56
FCCEICGAHFTQKGNLLRHIKL | -1.2
FRCDVCGAMFTQKGNLLRHIKL | -1.5
FFCNQCGRNFTQKGNLLRHIKL | 0.295
LCCPICGFHCTQKGNLLRHIKL | 0.744
FQCPVCGAGFTQKGNLLRHIKL | -0.117
FVCPVCGAPFTQKGNLLRHIKL | 0.0267
